The list shows a part of the results. The list includes weakly bound sequences.

The assay has as its target T1, MBP-FoxP3dN (UniProt Q99JB6).
T1 sequence: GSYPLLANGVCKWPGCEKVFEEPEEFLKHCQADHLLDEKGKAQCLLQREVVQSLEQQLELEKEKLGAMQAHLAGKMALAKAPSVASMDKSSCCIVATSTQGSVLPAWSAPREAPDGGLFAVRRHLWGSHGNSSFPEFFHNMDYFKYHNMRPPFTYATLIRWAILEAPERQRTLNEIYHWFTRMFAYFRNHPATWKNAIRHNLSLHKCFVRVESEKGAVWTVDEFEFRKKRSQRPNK
The assay is described as follows: PD-seq (MBP pull-down with sequencing). As to conditions: 20 mM Tris-HCl pH 7.5, 100 mM NaCl, 1.5 mM MgCl2, 0.4 uM protein, 0.1 uM dsDNA library, 30 min, room temperature, amylose pull-down; high values mean tight binding; double strand, one strand shown.
“GATGATTGTTCTCCCAGCTGATGAATTACAGGCTTCGAGTAAACAAATTTTCCTAATCTTTCTGTTCAAGCGCCATCTAC”: the binding signal (RPM ratio (pull-down/input)) was found to be 0.604. For the sequence “GATGATTGTTCTCCCAGCTGATGAATTGGCACGGTCGAGTAAACAAATTTTCCTAATCTTTCTGTTCAAGCGCCATCTAC”, the binding signal (RPM ratio (pull-down/input)) came out at 0.277.

In the case of “GATGATTGTTCTCCCAGCTGATGAATTCTCATGATCGAGTAAACAAATTTTCCTAATCTTTCTGTTCAAGCGCCATCTAC”, the binding signal (RPM ratio (pull-down/input)) came to 0.31. Take “GATGATTGTTCTCCCAGCTGATGAATTGTATTCCTCGAGTAAACAAATTTTCCTAATCTTTCTGTTCAAGCGCCATCTAC”: the binding signal (RPM ratio (pull-down/input)) came out at 1.97.

Consider “GATGATTGTTCTCCCAGCTGATGAATTAGCGGGCTCGAGTAAACAAATTTTCCTAATCTTTCTGTTCAAGCGCCATCTAC”, for which the binding signal (RPM ratio (pull-down/input)) stood at 0.313. Then “GATGATTGTTCTCCCAGCTGATGAATTGAACCCGTCGAGTAAACAAATTTTCCTAATCTTTCTGTTCAAGCGCCATCTAC”, with 0.226. Then “GATGATTGTTCTCCCAGCTGATGAATTACATAAATCGAGTAAACAAATTTTCCTAATCTTTCTGTTCAAGCGCCATCTAC”, with 0.499; and “GATGATTGTTCTCCCAGCTGATGAATTTTTCTTGTCGAGTAAACAAATTTTCCTAATCTTTCTGTTCAAGCGCCATCTAC”, with 0.275. Consider “GATGATTGTTCTCCCAGCTGATGAATTCTGTTCATCGAGTAAACAAATTTTCCTAATCTTTCTGTTCAAGCGCCATCTAC”, for which the binding signal (RPM ratio (pull-down/input)) is 0.794. Turning to “GATGATTGTTCTCCCAGCTGATGAATTCACTAAATCGAGTAAACAAATTTTCCTAATCTTTCTGTTCAAGCGCCATCTAC”, the binding signal (RPM ratio (pull-down/input)) was 0.211. Regarding “GATGATTGTTCTCCCAGCTGATGAATTTAGTACTTCGAGTAAACAAATTTTCCTAATCTTTCTGTTCAAGCGCCATCTAC”, the binding signal (RPM ratio (pull-down/input)) was found to be 0.745. Turning to “GATGATTGTTCTCCCAGCTGATGAATTGGACGGGTCGAGTAAACAAATTTTCCTAATCTTTCTGTTCAAGCGCCATCTAC”, the binding signal (RPM ratio (pull-down/input)) worked out at 0.186. For the sequence “GATGATTGTTCTCCCAGCTGATGAATTCTATGTATCGAGTAAACAAATTTTCCTAATCTTTCTGTTCAAGCGCCATCTAC”, the binding signal (RPM ratio (pull-down/input)) was determined as 2.49. For the sequence “GATGATTGTTCTCCCAGCTGATGAATTAGACTGCTCGAGTAAACAAATTTTCCTAATCTTTCTGTTCAAGCGCCATCTAC”, the binding signal (RPM ratio (pull-down/input)) was 0.376. Turning to “GATGATTGTTCTCCCAGCTGATGAATTAGTTACCTCGAGTAAACAAATTTTCCTAATCTTTCTGTTCAAGCGCCATCTAC”, the binding signal (RPM ratio (pull-down/input)) was found to be 1.16.

“GATGATTGTTCTCCCAGCTGATGAATTAAGCCAGTCGAGTAAACAAATTTTCCTAATCTTTCTGTTCAAGCGCCATCTAC”: the binding signal (RPM ratio (pull-down/input)) was 1.37. With “GATGATTGTTCTCCCAGCTGATGAATTTAGCCGATCGAGTAAACAAATTTTCCTAATCTTTCTGTTCAAGCGCCATCTAC”, the binding signal (RPM ratio (pull-down/input)) amounted to 0.478. For the sequence “GATGATTGTTCTCCCAGCTGATGAATTTGGTCGCTCGAGTAAACAAATTTTCCTAATCTTTCTGTTCAAGCGCCATCTAC”, the binding signal (RPM ratio (pull-down/input)) came out at 0.421. With “GATGATTGTTCTCCCAGCTGATGAATTGCAGGCCTCGAGTAAACAAATTTTCCTAATCTTTCTGTTCAAGCGCCATCTAC” the figure was 0.825; with “GATGATTGTTCTCCCAGCTGATGAATTTAGTCTTTCGAGTAAACAAATTTTCCTAATCTTTCTGTTCAAGCGCCATCTAC”, 0.744.

Consider “GATGATTGTTCTCCCAGCTGATGAATTCTTCGATTCGAGTAAACAAATTTTCCTAATCTTTCTGTTCAAGCGCCATCTAC”, for which the binding signal (RPM ratio (pull-down/input)) came to 0.253. With “GATGATTGTTCTCCCAGCTGATGAATTGGAGCGATCGAGTAAACAAATTTTCCTAATCTTTCTGTTCAAGCGCCATCTAC” the figure was 0.474; with “GATGATTGTTCTCCCAGCTGATGAATTGAATTAATCGAGTAAACAAATTTTCCTAATCTTTCTGTTCAAGCGCCATCTAC”, 0.295; with “GATGATTGTTCTCCCAGCTGATGAATTTTCCTGCTCGAGTAAACAAATTTTCCTAATCTTTCTGTTCAAGCGCCATCTAC”, 0.223. Turning to “GATGATTGTTCTCCCAGCTGATGAATTGATTGATTCGAGTAAACAAATTTTCCTAATCTTTCTGTTCAAGCGCCATCTAC”, the binding signal (RPM ratio (pull-down/input)) came out at 1.74.

As for “GATGATTGTTCTCCCAGCTGATGAATTTGCGAGTTCGAGTAAACAAATTTTCCTAATCTTTCTGTTCAAGCGCCATCTAC”, the binding signal (RPM ratio (pull-down/input)) was 1.22. “GATGATTGTTCTCCCAGCTGATGAATTGCTGCGGTCGAGTAAACAAATTTTCCTAATCTTTCTGTTCAAGCGCCATCTAC”: the binding signal (RPM ratio (pull-down/input)) came out at 0.598. In the case of “GATGATTGTTCTCCCAGCTGATGAATTTCGCCAGTCGAGTAAACAAATTTTCCTAATCTTTCTGTTCAAGCGCCATCTAC”, the binding signal (RPM ratio (pull-down/input)) was determined as 2.59. As to “GATGATTGTTCTCCCAGCTGATGAATTTCCCGCTTCGAGTAAACAAATTTTCCTAATCTTTCTGTTCAAGCGCCATCTAC”, the binding signal (RPM ratio (pull-down/input)) was 0.261.

In the case of “GATGATTGTTCTCCCAGCTGATGAATTTCGTGTCTCGAGTAAACAAATTTTCCTAATCTTTCTGTTCAAGCGCCATCTAC”, the binding signal (RPM ratio (pull-down/input)) was found to be 1.6. With “GATGATTGTTCTCCCAGCTGATGAATTGAACATTTCGAGTAAACAAATTTTCCTAATCTTTCTGTTCAAGCGCCATCTAC” the figure was 0.388. On to “GATGATTGTTCTCCCAGCTGATGAATTGAGAACGTCGAGTAAACAAATTTTCCTAATCTTTCTGTTCAAGCGCCATCTAC”, for which the binding signal (RPM ratio (pull-down/input)) turned out to be 0.267.

Source of the values: PMC12820563.
